Assay results taken from patent US20230110958A1 (Regeneron, published 2023).

T1: murine IL27 receptor (IL27Ra and gp130) on mouse cells (MC9/STAT3-Luc reporter cells; splenic CD4+ T cells) (mouse, UniProt O70394 25-623; Q00560 23-917)
T1 sequence (looked up) 1: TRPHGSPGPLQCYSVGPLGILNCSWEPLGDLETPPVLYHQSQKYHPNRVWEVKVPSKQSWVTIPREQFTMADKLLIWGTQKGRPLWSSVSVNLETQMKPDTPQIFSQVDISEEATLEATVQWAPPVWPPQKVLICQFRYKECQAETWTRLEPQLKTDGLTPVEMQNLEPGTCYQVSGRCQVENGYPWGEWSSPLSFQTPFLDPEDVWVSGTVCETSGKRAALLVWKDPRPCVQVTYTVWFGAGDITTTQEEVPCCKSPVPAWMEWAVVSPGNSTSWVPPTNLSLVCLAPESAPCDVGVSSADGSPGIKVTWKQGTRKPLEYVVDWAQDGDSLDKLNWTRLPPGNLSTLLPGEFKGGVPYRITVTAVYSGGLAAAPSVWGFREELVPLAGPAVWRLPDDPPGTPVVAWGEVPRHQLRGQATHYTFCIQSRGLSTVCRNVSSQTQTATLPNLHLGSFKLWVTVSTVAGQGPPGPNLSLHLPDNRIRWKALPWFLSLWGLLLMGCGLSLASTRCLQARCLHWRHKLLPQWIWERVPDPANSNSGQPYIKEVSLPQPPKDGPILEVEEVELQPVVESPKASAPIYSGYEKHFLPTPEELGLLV
T1 sequence (looked up) 2: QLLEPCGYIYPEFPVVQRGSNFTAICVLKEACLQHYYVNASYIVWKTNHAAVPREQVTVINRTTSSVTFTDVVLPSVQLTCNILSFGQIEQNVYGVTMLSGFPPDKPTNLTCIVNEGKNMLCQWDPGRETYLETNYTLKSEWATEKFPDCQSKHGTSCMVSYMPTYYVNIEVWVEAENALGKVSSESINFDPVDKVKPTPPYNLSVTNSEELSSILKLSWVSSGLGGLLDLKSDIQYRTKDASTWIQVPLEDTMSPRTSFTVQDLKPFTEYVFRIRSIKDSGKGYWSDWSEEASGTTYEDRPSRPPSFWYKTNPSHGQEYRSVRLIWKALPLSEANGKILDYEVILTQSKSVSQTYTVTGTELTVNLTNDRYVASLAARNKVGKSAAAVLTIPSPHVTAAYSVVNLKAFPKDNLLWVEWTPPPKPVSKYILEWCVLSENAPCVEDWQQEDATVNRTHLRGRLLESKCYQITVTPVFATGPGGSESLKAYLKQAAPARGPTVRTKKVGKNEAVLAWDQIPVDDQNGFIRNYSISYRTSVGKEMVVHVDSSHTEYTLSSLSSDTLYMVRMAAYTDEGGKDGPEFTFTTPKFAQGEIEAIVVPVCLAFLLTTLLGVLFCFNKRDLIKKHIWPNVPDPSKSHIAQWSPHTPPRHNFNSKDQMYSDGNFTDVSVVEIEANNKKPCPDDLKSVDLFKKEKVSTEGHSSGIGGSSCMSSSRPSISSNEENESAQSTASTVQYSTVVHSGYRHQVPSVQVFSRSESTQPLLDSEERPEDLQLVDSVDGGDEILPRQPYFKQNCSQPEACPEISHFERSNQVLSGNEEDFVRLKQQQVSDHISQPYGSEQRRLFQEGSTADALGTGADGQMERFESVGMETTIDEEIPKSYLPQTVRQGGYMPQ

B1: IL27M22, mEB13-mp28 hIgG1 Fc (Fc fusion)
chain: YTETALVALSQPRVQCHASRYPVAVDCSWTPLQAPNSTRSTSFIATYRLGVATQQQSQPCLQRSPQASRCTIPDVHLFSTVPYMLNVTAVHPGGASSSLLAFVAERIIKPDPPEGVRLRTAGQRLQVLWHPPASWPFPDIFSLKYRLRYRRRGASHFRQVGPIEATTFTLRNSKPHAKYCIQVSAQDLTDYGKPSDWSLPGQVESAPHKPGGGGSGGGGSGGGGSFPTDPLSLQELRREFTVSLYLARKLLSEVQGYVHSFAESRLPGVNLDLLPLGYHLPNVSLTFQAWHHLSDSERLCFLATTLRPFPAMLGGLGTQGTWTSSEREQLWAMRLDLRDLHRHLRFQVLAAGFKCSKEEEDKEEEEEEEEEEKKLPLGALGGPNQVSSQVSWPQLLYTYQLLHSLELVLSRAVRDLLLLSLPRRPGSAWDS[here human IgG1 Fc without letters]
B2: IL27M20, EBI3-p28-HSA-mmh (other)
chain: YTETALVALSQPRVQCHASRYPVAVDCSWTPLQAPNSTRSTSFIATYRLGVATQQQSQPCLQRSPQASRCTIPDVHLFSTVPYMLNVTAVHPGGASSSLLAFVAERIIKPDPPEGVRLRTAGQRLQVLWHPPASWPFPDIFSLKYRLRYRRRGASHFRQVGPIEATTFTLRNSKPHAKYCIQVSAQDLTDYGKPSDWSLPGQVESAPHKPGGGGSGGGGSGGGGSGGGGSFPTDPLSLQELRREFTVSLYLARKLLSEVQGYVHSFAESRLPGVNLDLLPLGYHLPNVSLTFQAWHHLSDSERLCFLATTLRPFPAMLGGLGTQGTWTSSEREQLWAMRLDLRDLHRHLRFQVLAAGFKCSKEEEDKEEEEEEEEEEKKLPLGALGGPNQVSSQVSWPQLLYTYQLLHSLELVLSRAVRDLLLLSLPRRPGSAWDSGGGGSGGGGSGGGGS[here about 600 residues without letters]EQKLISEEDLGGEQKLISEEDLHHHHHH

Molecular target: T1, murine IL27 receptor (IL27Ra and gp130) …
Assay: cell-based or functional assay

Row | Binder | EC50 (M), STAT3 luciferase, MC9 cells [M] | FOLD INDUCTION, STAT3 luciferase, MC9 cells [fold]
1 | B1 | 6.08e-10 | 3.95
2 | B2 | 2.87e-12 | 2.79
